{"source": "paper PMC5892938", "note": "Some of the results follow. At the low end of the ranking the order means little."}
{"molecular_target": "GST-SBP-SLBP (stem-loop binding protein) (UniProt Q14493)", "assay": "targeted RNA Bind-n-Seq;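 note: DESeq read counts versus GST-SBP nonspecific binding control pulldown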", "settings": "RBNS binding buffer: 25 mM Tris pH 7.5, 150 mM KCl, 3 mM MgCl2, 0.1% Tween, 0.5 mg/mL BSA, 1 mM DTT; 27 nM protein, 750 pM RNA pool; temperature not stated; high values mean tight binding"}
{"sequence": "GGUCACGUCUCAAUCAACUCUUCCUCCAGGGAAAGCCCUGGUUUUCUCAACAGCUCGCAGUCAAG", "binding signal (log2 fold change)": 0.0519}
{"sequence": "GGUCACGUCUCAAUCAACUCAUUCGCAGGAGUUUACUCCUGGUAUCUCAACAGCUCGCAGUCAAG", "binding signal (log2 fold change)": 0.104}
{"sequence": "GGUCACGUCUCAAUCAACUCUUUCCCCAGGGAAACCCCUGGCAUACUCAACAGCUCGCAGUCAAG", "binding signal (log2 fold change)": 0.0252}
{"sequence": "GGUCACGUCUCAAUCAACUCAUCCUCCAGGGAAAACCCUGGCAUUUUCAACAGCUCGCAGUCAAG", "binding signal (log2 fold change)": -0.111}
{"sequence": "GGUCACGUCUCAAUCAACUCUUUCCCAGGAGUUUCCUCCUGUUUAUUCAACAGCUCGCAGUCAAG", "binding signal (log2 fold change)": 0.0284}
{"sequence": "GGUCACGUCUCAAUCAACUCAUUUUCCAGGGAAAACCCUGGCUAAUUCAACAGCUCGCAGUCAAG", "binding signal (log2 fold change)": -0.092}
{"sequence": "GGUCACGUCUCAAUCAACUCAAUUUCCAGGGAAACCCCUGGCAUUUUCAACAGCUCGCAGUCAAG", "binding signal (log2 fold change)": 0.0609}
{"sequence": "GGUCACGUCUCAAUCAACUCAUUUUCCAGGGAAACCCCUGGCAGUCUCAACAGCUCGCAGUCAAG", "binding signal (log2 fold change)": 0.261}
{"sequence": "GGUCACGUCUCAAUCAACUCAUGUCCAGGAGUUUUCUCCUGCUAUUUCAACAGCUCGCAGUCAAG", "binding signal (log2 fold change)": 0.128}
{"sequence": "GGUCACGUCUCAAUCAACUCUUUCUCAGGAGUUUUCUCCUGUUUUGUCAACAGCUCGCAGUCAAG", "binding signal (log2 fold change)": 0.122}
{"sequence": "GGUCACGUCUCAAUCAACUCAUCUUCCAGGGAAACCCCUGGCUAUCUCAACAGCUCGCAGUCAAG", "binding signal (log2 fold change)": -0.223}
{"sequence": "GGUCACGUCUCAAUCAACUCUUCCUCAGGAGUUUUCUCCUGCUAACUCAACAGCUCGCAGUCAAG", "binding signal (log2 fold change)": 0.021}
{"sequence": "GGUCACGUCUCAAUCAACUCAAUAGAGGGGGGGAAAACCCCUUUACCCUCGUCCUCAACAGCUCGCAGUCAAG", "binding signal (log2 fold change)": 0.0707}
{"sequence": "GGUCACGUCUCAAUCAACUCUAUUUCCAGGGAAAACCCUGGCUAUCUCAACAGCUCGCAGUCAAG", "binding signal (log2 fold change)": 0.0627}
{"sequence": "GGUCACGUCUCAAUCAACUCAAAAGAGGGGGGGAAAACCCCUUUGCCCUCGAAUUCAACAGCUCGCAGUCAAG", "binding signal (log2 fold change)": -0.215}
{"sequence": "GGUCACGUCUCAAUCAACUCAAGUCCCAGGGAAAUCCCUGGCAAUCUCAACAGCUCGCAGUCAAG", "binding signal (log2 fold change)": -0.0955}
{"sequence": "GGUCACGUCUCAAUCAACUCUUUUUCAGGAGUUUCCUCCUGUAAUCUCAACAGCUCGCAGUCAAG", "binding signal (log2 fold change)": -0.0075}
{"sequence": "GGUCACGUCUCAAUCAACUCAUUCCCCAGGGAAAGCCCUGGUAAACUCAACAGCUCGCAGUCAAG", "binding signal (log2 fold change)": 0.148}
{"sequence": "GGUCACGUCUCAAUCAACUCUUCCUCCAGGGAAAACCCUGGUUAUUUCAACAGCUCGCAGUCAAG", "binding signal (log2 fold change)": 0.0637}
{"sequence": "GGUCACGUCUCAAUCAACUCUUAAGAGGGGGGGAAAACCCCUUUGCCCUCACCUUCAACAGCUCGCAGUCAAG", "binding signal (log2 fold change)": -0.104}
{"sequence": "GGUCACGUCUCAAUCAACUCAUUCCCAGGAGUUUCCUCCUGCAAUCUCAACAGCUCGCAGUCAAG", "binding signal (log2 fold change)": 0.161}
